Data as given in PubChem BioAssay AID1645887 (National Center for Advancing Translational Sciences (NCATS), 2021).
Where “and” joins values, the source holds several entries; their conditions need not be identical. Identical values can stand only once. Screen size: about 16,000 compounds; about 40 (0.2%) were called active. Another 1% or so got no clear call; they are omitted. The call rests on the fitted dose curve; in most records, active means well fitted activation curve with a large enough effect; inconclusive means small, poorly fitted or top-dose-only effect, or another doubt; inactive means no such curve, though single readings can be large or run the other way. This is one part of the list.

biological target: Rap guanine nucleotide exchange factor 4 (Homo sapiens) (UniProt Q8WZA2); experiment: Validation qHTS for agonist of cAMP-regulated guanine nucleotide exchange factor 4 (EPAC2); settings: EPAC2 Rap1B BODIPY-GDP exchange, fluorescence; activation: hits give high values;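 further: exchange makes BODIPY-GDP fluorescence drop when released from Rap1B; series mostly up to about 150 µM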
Chain of UniProt Q8WZA2 (Q8WZA2 whole entry, looked up): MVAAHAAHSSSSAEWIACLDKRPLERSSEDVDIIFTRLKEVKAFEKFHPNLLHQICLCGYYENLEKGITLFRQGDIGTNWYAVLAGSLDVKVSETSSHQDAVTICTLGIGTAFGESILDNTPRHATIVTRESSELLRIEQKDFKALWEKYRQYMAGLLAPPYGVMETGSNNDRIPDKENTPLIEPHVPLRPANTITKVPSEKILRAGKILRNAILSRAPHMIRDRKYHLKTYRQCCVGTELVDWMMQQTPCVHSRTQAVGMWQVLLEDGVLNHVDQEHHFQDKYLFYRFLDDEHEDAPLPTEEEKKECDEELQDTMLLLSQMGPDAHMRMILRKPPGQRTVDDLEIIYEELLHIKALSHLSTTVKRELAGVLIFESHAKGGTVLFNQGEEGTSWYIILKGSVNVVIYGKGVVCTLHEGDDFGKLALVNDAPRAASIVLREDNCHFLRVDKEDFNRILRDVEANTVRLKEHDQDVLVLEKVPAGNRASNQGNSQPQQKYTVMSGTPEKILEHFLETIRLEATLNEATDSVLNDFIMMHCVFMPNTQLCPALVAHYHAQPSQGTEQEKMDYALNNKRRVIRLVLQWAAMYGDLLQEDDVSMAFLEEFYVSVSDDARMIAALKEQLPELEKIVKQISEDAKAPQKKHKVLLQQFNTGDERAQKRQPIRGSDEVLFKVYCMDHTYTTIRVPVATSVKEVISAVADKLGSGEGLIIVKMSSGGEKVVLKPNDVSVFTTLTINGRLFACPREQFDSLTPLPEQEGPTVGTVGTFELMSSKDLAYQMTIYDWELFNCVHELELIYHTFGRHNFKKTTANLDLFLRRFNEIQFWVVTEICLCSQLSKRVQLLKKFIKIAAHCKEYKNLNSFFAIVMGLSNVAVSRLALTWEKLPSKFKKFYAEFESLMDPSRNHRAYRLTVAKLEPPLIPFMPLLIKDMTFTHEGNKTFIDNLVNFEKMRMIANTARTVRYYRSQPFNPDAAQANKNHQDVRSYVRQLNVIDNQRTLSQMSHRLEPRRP
Procedure, shortened: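 Fluorescent exchange assay: 100 nM EPAC2 with 250 nM RAP1B-BODIPY-GDP and 50 uM GDP; compound added, 5 min at room temperature, then read (ex 480/em 540 nm) every 5 min for 30 min. Normalized to 6.5 mM cAMP agonist control.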
On the % scale 0 is the no-effect control and ±100 the full control effect.

activation, inactive:
CC(C)(C)c1ccc(S(=O)(=O)/C=C/C#N)cc1 -19.5%
CN(C)Cc1ccccc1-c1cncnc1Nc1ccc(F)cc1 -17.9%
CCNc1ncc2ncc(=O)n(CCc3ccccc3)c2n1 0.674%
COc1nccnc1NS(=O)(=O)c1ccc(N)cc1 -16.7%
COc1cccc(Nc2ncc3nc(CCc4ccccc4)c(=O)n(C[C@H]4CCCO4)c3n2)c1 -4.07%
CCCC(=O)O[C@]1(C(=O)COC(=O)CC)[C@@H](C)C[C@H]2[C@@H]3CCC4=CC(=O)C=C[C@]4(C)[C@@]3(F)[C@@H](O)C[C@@]21C -13.4%
COc1ncc2nc(-c3ccc(F)cc3)c(=O)n(Cc3ccc(F)cc3)c2n1 -2.57%
Cc1nc2cnc(N3CCN(C)CC3)nc2n(Cc2cccs2)c1=O -7.39%
COC(=O)c1cc(CNC(=O)c2ccccn2)cc(NC(=O)c2ccccc2OC)c1 -3.4%
C/C=C1\NC(=O)[C@H]2CSSCC/C=C/[C@H](CC(=O)N[C@H](C(C)C)C(=O)N2)OC(=O)C(C(C)C)NC1=O (some centres not stated) -20%
CC1=C(C(=O)OC(C)C)[C@@H](c2cccc3nonc23)C([N+](=O)[O-])=C(C)N1 -1.47%
C[C@@H](CCc1ccc(O)cc1)NCCc1ccc(O)c(O)c1 -24.8%
Cc1cccc(CNc2nc(-c3ccc4c(c3)OCO4)nc3ccccc23)c1 5.64%
CC(C)OC(=O)C(C)(C)Oc1ccc(C(=O)c2ccc(Cl)cc2)cc1 -13.7% and -5.56% and -28.8%
COc1ccccc1-c1oc2ccccc2c(=O)c1O 1.38%
Cc1cc(C(=O)N(Cc2cc3cc4c(cc3nc2N2CCOCC2)CCC4)CC2CCCO2)c(=O)[nH]c1C (configuration not stated) -6.66%
CCNC(=O)[C@H]1O[C@H](n2cnc3c(N)nc(NCCc4ccc(CCC(=O)O)cc4)nc32)[C@@H](O)[C@@H]1O -18.4%
CN(C(=O)c1cnn(-c2nccc(-c3ccccc3C(F)(F)F)n2)c1C1CC1)C1CCOC1 (configuration not stated) 2.29%
O=C(NCc1ccon1)c1ccc(-c2csc3ccccc23)nc1N1CCC(N2CCCC(CO)C2)CC1 (configuration not stated) -23.3%
Cn1c(=O)c(-c2ccc(F)cc2)nc2cnc(N3CCOCC3)nc21 3.8%
COc1ccc(-n2c(=O)c(-c3cccs3)nc3cnc(N4CCN(C)CC4)nc32)cc1 8.99%
C=C1CC/C=C(\C)CC[C@@H]2[C@@H]1CC2(C)C -16%
O=C(c1cc(C(F)(F)F)cc(C(F)(F)F)c1)N1CCC2(CC1)CCN(c1ccncc1)CC2 -18.8%
COC(=O)c1c(C)cc(OC)cc1O -12.6%
NC(=O)CC[C@H](N)C(=O)O -2.46% and -31.7%
O=C1c2ccccc2C(=O)C1c1ccc(Br)cc1 2.72%
O=S(=O)(O)Oc1ccc(C(c2ccc(OS(=O)(=O)O)cc2)c2ccccn2)cc1 -4.26%
CC[C@H]1OC(=O)[C@H](C)[C@@H](O[C@H]2C[C@@](C)(OC)[C@@H](O)[C@H](C)O2)C(C)[C@@H](O[C@@H]2O[C@H](C)C[C@H](N(C)C)[C@@H]2O)[C@](C)(OC)C[C@@H](C)C(=O)[C@H](C)[C@@H](O)[C@]1(C)O (some centres not stated) 10.2%
Cc1nc2ccccc2nc1CN1CCOc2ccc(C3(O)CCN(c4ccccc4F)CC3)cc2C1 -14%
O=C(c1ccco1)N1CCC2(CC1)CN(c1ccccn1)C2 -0.275%
CCn1c(-c2cccc(OC)c2)nc2cc(NC(C)=O)cc(C(=O)N3CCC[C@H]3C(=O)OC)c21 -2.69%
CC(=O)OCC(=O)C1CCC2C3CCC4=CC(=O)CC[C@@]4(C)C3CC[C@]12C (some centres not stated) -9.81%
Cc1cccc(CNc2ccnc(-c3ccc(C(=O)N(C)C)cc3)n2)c1 -34.4%
FC(F)(F)c1ccccc1-c1nccc(-n2ccnc2)n1 -9.06%
CCOC(=S)SSC(=S)OCC -19.7%
Cc1ccc(CNc2nc(CN3CCN(C=O)CC3)nc3ccccc23)o1 5.61%
COCCn1c(=O)c(-c2ccc(Cl)cc2)nc2cnc(Nc3ccccc3)nc21 -8.15%
CO[C@]1(NC(=O)C(C(=O)O)c2ccc(O)cc2)C(=O)N2C(C(=O)O)=C(CSc3nnnn3C)COC21 (some centres not stated) -19.7%
CC(=O)NCCNc1ccnc(-c2ccccc2C(F)(F)F)n1 -2.45%
Cc1cc2c(s1)Nc1ccccc1N=C2N1CCN(C)CC1 -14.4% and -1.98%
CC1(C)O[C@H]2C[C@@H]3[C@H]4CCC5=CC(=O)C=C[C@]5(C)[C@@]4(F)[C@@H](O)C[C@]3(C)[C@]2(C(=O)CO)O1 2.81%
O=C(O)CC1CCCc2ccccc2C1O (configuration not stated) -3.93%
CO/N=C(/C(=O)N[C@@H]1C(=O)N2C(C(=O)O)=C(Cn3nnc(C)n3)CS[C@H]12)c1csc(N)n1 13.5%
COc1ccc2cc(CNC3CCS(=O)(=O)C3)c(-c3ccc(OC)c(OC)c3)nc2c1 (configuration not stated) 2.21%
N[C@H](CCC(=O)N[C@H](CSN=O)C(=O)NCC(=O)O)C(=O)O -26.4%
COc1ccc(Oc2ncc3nc(-c4ccc(Cl)cc4)c(=O)n(C)c3n2)cc1 2.17%
O=C(O)c1ccccc1O 1.02% and -18.8% and -3.37%
CC(=O)Oc1cc(-c2coc3cc(OC(C)=O)c(OC(C)=O)c(OC(C)=O)c3c2=O)cc(OC(C)=O)c1OC(C)=O -4.18%
COc1ccc(-c2nc3cnc(N4CCOCC4)nc3n(C3CC3)c2=O)cc1 -9.96%
O=c1oc2cc(O)ccc2s1 -6.04%
NNc1nnc(NN)c2ccccc12 20.5%
Cc1oc(-c2ccccc2NC(=O)c2ccccc2)nc1CNC(=O)c1c(-c2ccccc2)noc1C 7.1%
COc1cc2ncnc(Nc3cccc(Cl)c3)c2cc1OC -3.04% and -16.6% and -17.3%
OCc1nc2ccc(Cl)cc2[nH]1 -14.6%
O=C(c1cccnc1)C1CCCN(Cc2ccc3c(c2)CN(C(=O)c2cccs2)CCO3)C1 (configuration not stated) -0.301%
COc1ncc2nc(-c3cc(F)cc(F)c3)c(=O)n(Cc3cccs3)c2n1 1.12%
CC/C(=C/c1ccccc1)c1cc(Oc2ccccc2)cc2oc3ccccc3c12 -3.35%
C=C[C@@]1(C)CC(=O)[C@@]2(O)[C@@]3(C)[C@@H](O)CCC(C)(C)[C@@H]3[C@H](OC(=O)CCN(C)C)[C@H](OC(C)=O)[C@@]2(C)O1 -21.8%
O=C(NCc1ccccn1)c1cnn(-c2nccc(-c3cccs3)n2)c1C1CC1 -3.13%
CN1CCN(c2ncncc2-c2ccc(N(C)C)cc2)CC1 -9.35%
CCCCC/C=C\C/C=C\C/C=C\C/C=C\CCCC(=O)O[C@@H](CO)COCCCCCCCCCCCCCCCC -2.94%
Cc1cc(-c2ccnc(-n3ncc(C(=O)NCCc4cccnc4)c3C)n2)c(C)s1 -11.7%
O=c1c(-c2cccs2)nc2cnc(N3CCNCC3)nc2n1CCc1ccccc1 6.28%
COc1ccc2[nH]cc(CCNc3ncnc4ccc(-c5ccoc5)cc34)c2c1 -12.4%
CC1(C)OC2CC3C4CC(F)C5=CC(=O)CC[C@@]5(C)C4C(O)C[C@@]3(C)[C@]2(C(=O)CO)O1 (some centres not stated) 19.5%
O=C(c1cc(C(F)(F)F)cc(C(F)(F)F)c1)N1CCC2(CC1)CCN(c1ccccc1)CC2 -27.3%
CN(C)C(=O)c1ccc(-c2cc(NCc3cccs3)ncn2)cc1 -16.8%
NCCCCNS(=O)(=O)c1ccc2c(Cl)cccc2c1 -11.2%
CSc1nnc(CCNC(=O)c2ccccc2C(F)(F)F)n1-c1ccc(F)cc1 -13.1%
CCc1c(C)c2ccccc2[nH]c1=O -14%
Nc1ncnc2c1ncn2C1OC(COP(=O)(O)O)C(O)C1O (configuration not stated) -9.34%
O=C(c1cnccn1)N1CCC2(CC1)CN(Cc1cc(C(F)(F)F)cc(C(F)(F)F)c1)C2 -14.5%
CN(C)c1ccc(-c2nccc(NCCN3CCOCC3)n2)cc1 -10.2%
COCCn1c(=O)c(C)nc2cncnc21 -1.56%
CNc1nc(-c2ccccc2C)nc2ccccc12 -20.4%
O=C(O)[C@H](CC(=O)N1C[C@H]2CCCC[C@H]2C1)Cc1ccccc1 -24.7%
N[C@H](C(=O)O)c1ccc(O)cc1 -7.02%
CN1CCN(c2ncc3nc(-c4cccc(C#N)c4)c(=O)n(C[C@H]4CCCO4)c3n2)CC1 -11.6%
CC(C)(CO)NC(=O)c1cnn(-c2ncc3c(n2)-c2ccccc2CC3)c1C1CC1 -6.03%
CCOc1ccc2nc(S(N)(=O)=O)sc2c1 -21.5%
Cc1c(O)cc2c(c1C)O[C@](C)(CCC[C@H](C)CCC[C@H](C)CCCC(C)C)CC2 -58.8%
COc1ccc(-c2cccc3c2OC(CNC(=O)c2ccc4c(c2)OCO4)C3)nn1 (configuration not stated) -15.3%
